What follows are compounds tested on MLKL phosphorylation, HT29-L23 human colorectal adenocarcinoma cells (assay: cells). Settings: read-out: pMLKL HCS Cell Assay (IC50, uM).

Compared with `COc1ncc(-c2cc(C(F)(F)F)c3c(N)ncnn23)cc1C(=O)N[C@@H]1CN(CC(O)(C2CC2)C(F)(F)F)C[C@@H]1F` (stereo partly drawn) [Example 1825, 5-(4-amino-5-(trifluoromethyl)pyrrolo[2,1-f][1,2,4]triazin-7-yl)-N-((3R,4S)-1-(2-cyclopropyl-3,3,3-trifluoro-2-hydroxypropyl)-4-fluoropyrrolidin-3-yl)-2-methoxynicotinamide], `COc1ncc(-c2cc(C(F)(F)F)c3c(N)ncnn23)cc1C(=O)N[C@@H]1CN(C(=O)C2(C)CC2(F)F)C[C@@H]1F` (stereo partly drawn) [Example 304, 5-[4-amino-5-(trifluoromethyl)pyrrolo[2,1-f][1,2,4]triazin-7-yl]-N-[(3R,4S)-1-(2,2-difluoro-1-methylcyclopropanecarbonyl)-4-fluoropyrrolidin-3-yl]-2-methoxypyridine-3-carboxamide] is 9.1-fold higher in IC50: 0.0033 µM for the first, 0.03 µM for the second.

Compared with `Nc1ncnn2c(-c3ccc(F)c(C(=O)N[C@@H]4CN(C(=O)C5CC5(F)F)C[C@@H]4F)c3F)cc(C(F)(F)F)c12` (stereo partly drawn) [Example 730, 3-[4-amino-5-(trifluoromethyl)pyrrolo[2,1-f][1,2,4]triazin-7-yl]-N-[(3R,4S)-1-(2,2-difluorocyclopropanecarbonyl)-4-fluoropyrrolidin-3-yl]-2,6-difluorobenzamide], `Cc1ccc(-c2cc(C(F)(F)F)c3c(N)ncnn23)c(F)c1C(=O)N[C@@H]1CN(C(=O)C2CC2(F)F)C[C@@H]1F` (stereo partly drawn) [Example 754, 3-[4-amino-5-(trifluoromethyl)pyrrolo[2,1-f][1,2,4]triazin-7-yl]-N-[(3R,4S)-1-(2,2-difluorocyclopropanecarbonyl)-4-fluoropyrrolidin-3-yl]-2-fluoro-6-methylbenzamide] is 24-fold lower in IC50: 0.384 µM for the first, 0.016 µM for the second. The second is the more potent here.

Going from `COc1ncc(-c2cc(C(F)(F)F)c3c(N)ncnn23)cc1C(=O)N[C@@H]1CN(C(=O)C(C)(C)CO)C[C@@H]1F` [Example 1676, 5-(4-amino-5-(trifluoromethyl)pyrrolo[2,1-f][1,2,4]triazin-7-yl)-N-((3R,4S)-4-fluoro-1-(3-hydroxy-2,2-dimethylpropanoyl)pyrrolidin-3-yl)-2-methoxynicotinamide] to `COc1ncc(-c2cc(C(F)(F)F)c3c(N)ncnn23)cc1C(=O)N[C@@H]1CN(S(=O)(=O)/C=C\F)C[C@@H]1F` [Example 1468, 5-[4-amino-5-(trifluoromethyl)pyrrolo[2,1-f][1,2,4]triazin-7-yl]-N-[(3R,4S)-4-fluoro-1-[(Z)-2-fluoroethenesulfonyl]pyrrolidin-3-yl]-2-methoxypyridine-3-carboxamide], the IC50 rises from 0.056 µM to 0.278 µM (5-fold).

Compared with `COc1c(F)cc(-c2cc(C(F)(F)F)c3c(N)ncnn23)cc1C(=O)N[C@@H]1CN(C(=O)C2(F)CC2)C[C@@H]1F` [Example 688, 5-[4-amino-5-(trifluoromethyl)pyrrolo[2,1-f][1,2,4]triazin-7-yl]-3-fluoro-N-[(3R,4S)-4-fluoro-1-(1-fluorocyclopropanecarbonyl)pyrrolidin-3-yl]-2-methoxybenzamide], `Cc1ncc(-c2cc(C(F)(F)F)c3c(N)ncnn23)cc1C(=O)N[C@@H]1CN(C(=O)C2CC2(F)F)C[C@@H]1F` (single isomer, unassigned) [Example 354, 5-[4-amino-5-(trifluoromethyl)pyrrolo[2,1-f][1,2,4]triazin-7-yl]-N-[1-(2,2-difluorocyclopropane-carbonyl)-4-fluoropyrrolidin-3-yl]-2-methylpyridine-3-carboxamide] is 9.1-fold higher in IC50: 0.029 µM for the first, 0.265 µM for the second. The first is the more potent here.

Compared with `COC(=O)C1CCCC1N1CC(NC(=O)c2cc(-c3cc(C(F)(F)F)c4c(N)ncnn34)cnc2OC)[C@@H](F)C1` (stereo partly drawn) [Example 1371, methyl 2-[(3R,4S)-3-{5-[4-amino-5-(trifluoromethyl)-pyrrolo[2,1-f][1,2,4]triazin-7-yl]-2-methoxypyridine-3-amido}-4-fluoropyrrolidin-1-yl]cyclopentane-1-carboxy-late], `COc1ncc(-c2cc(C(F)(F)F)c3c(N)ncnn23)cc1C(=O)N[C@H]1CCN(C(=O)C2CCCCC2)C1` [Example 263] is 2.5-fold lower in IC50: 0.255 µM for the first, 0.102 µM for the second.

Compared with `Nc1ncnn2c(-c3ccc(OCC(F)(F)F)c(C(=O)N[C@@H]4CN(C(=O)c5ccccc5F)C[C@@H]4F)c3)cc(C(F)(F)F)c12` [Example 1076, 5-[4-amino-5-(trifluoromethyl)pyrrolo[2,1-f][1,2,4]triazin-7-yl]-N-[(3R,4S)-4-fluoro-1-(2-fluorobenzoyl)pyrrolidin-3-yl]-2-(2,2,2-trifluoroethoxy)benzamide], `Cc1ccc(-c2cc(C(F)(F)F)c3c(N)ncnn23)cc1C(=O)N[C@@H]1CN(C(=O)c2ccccc2F)C[C@@H]1F` [Example 998, 5-[4-amino-5-(trifluoromethyl)pyrrolo[2,1-f][1,2,4]triazin-7-yl]-N-[(3R,4S)-4-fluoro-1-(2-fluorobenzoyl)pyrrolidin-3-yl]-2-methylbenzamide] is 190-fold lower in IC50: 0.222 µM for the first, 0.0012 µM for the second. The second is the more potent here.

Going from `COc1ccc(-c2cc(C(F)(F)F)c3c(N)ncnn23)cc1C(=O)N[C@@H]1CN(C(=O)CC(C)C)C[C@@H]1F` [Example 1117, 5-[4-amino-5-(trifluoromethyl)pyrrolo[2,1-f][1,2,4]triazin-7-yl]-N-[(3R,4S)-4-fluoro-1-(3-methylbutanoyl)pyrrolidin-3-yl]-2-methoxybenzamide] to `Cc1ccc(-c2cc(C(F)(F)F)c3c(N)ncnn23)cc1C(=O)N[C@@H]1CN(C(=O)C2CC(F)(F)C2)C[C@@H]1F` [Example 986, 5-[4-amino-5-(trifluoromethyl)pyrrolo[2,1-f][1,2,4]triazin-7-yl]-N-[(3R,4S)-1-(3,3-difluorocyclobutanecarbonyl)-4-fluoropyrrolidin-3-yl]-2-methylbenzamide], the IC50 falls from 0.0073 µM to 0.0016 µM (4.6-fold). The second is the more potent here.

`COc1ncc(-c2cc(CN3CCC(F)(F)CC3)c3c(N)ncnn23)cc1C(=O)N[C@@H]1CN(C(=O)c2ccncc2Cl)C[C@@H]1F` [Example 1268, 5-{4-amino-5-[(4,4-difluoropiperidin-1-yl)methyl]pyrrolo[2,1-f][1,2,4]triazin-7-yl}-N-[(3R,4S)-1-(3-chloropyridine-4-carbonyl)-4-fluoropyrrolidin-3-yl]-2-methoxypyridine-3-carboxamide] and `COc1ncc(-c2cc(CN3CCC(F)(F)CC3)c3c(N)ncnn23)cc1C(=O)N[C@@H]1CN(C(=O)OCC2(C(F)(F)F)CC2)C[C@@H]1F` [Example 1510, [1-(trifluoromethyl)cyclopropyl]methyl (3R,4S)-3-(5-{4-amino-5-[(4,4-difluoropiperidin-1-yl)methyl]pyrrolo[2,1-f][1,2,4]triazin-7-yl}-2-methoxypyridine-3-amido)-4-fluoropyrrolidine-1-carboxylate] are within 1.5-fold of each other in IC50: 0.0015 µM for the first, 0.0016 µM for the second.

Compared with `Cc1cc(C(=O)N2C[C@H](F)[C@H](NC(=O)c3cc(-c4cc(C(F)(F)F)c5c(N)ncnn45)ccc3C)C2)ccn1` [Example 1021, 5-[4-amino-5-(trifluoromethyl)pyrrolo[2,1-f][1,2,4]triazin-7-yl]-N-[(3R,4S)-4-fluoro-1-(2-methylpyridine-4-carbonyl)pyrrolidin-3-yl]-2-methylbenzamide], `Cc1ccc(-c2cc(C(F)(F)F)c3c(N)ncnn23)cc1C(=O)N[C@@H]1CN(C(=O)c2ccccc2)C[C@@H]1F` [Example 1017, 5-[4-amino-5-(trifluoromethyl)pyrrolo[2,1-f][1,2,4]triazin-7-yl]-N-[(3R,4S)-1-benzoyl-4-fluoropyrrolidin-3-yl]-2-methylbenzamide] is 1.7-fold lower in IC50: 0.012 µM for the first, 0.0069 µM for the second. The second is the more potent here.

Going from `COc1ncc(-c2cc(C(F)(F)F)c3c(N)ncnn23)cc1C(=O)N[C@@H]1CN(C(=O)C2(C(F)(F)F)CCN(C(=O)OC(C)(C)C)C2)C[C@@H]1F` (stereo partly drawn) [Example 1678, tert-butyl 3-((3R,4S)-3-(5-(4-amino-5-(trifluoromethyl)pyrrolo[2,1-f][1,2,4]triazin-7-yl)-2-methoxynicotinamido)-4-fluoropyrrolidine-1-carbonyl)-3-(trifluoromethyl)pyrrolidine-1-carboxylate] to `CC(C)(F)C(=O)N1C[C@H](F)[C@H](NC(=O)c2cc(-c3cc(C(F)(F)F)c4c(N)ncnn34)c(F)cc2F)C1` [Example 782, 5-[4-amino-5-(trifluoromethyl)pyrrolo[2,1-f][1,2,4]triazin-7-yl]-2,4-difluoro-N-[(3R,4S)-4-fluoro-1-(2-fluoro-2-methylpropanoyl)pyrrolidin-3-yl]benzamide], the IC50 falls from 0.281 µM to 0.023 µM (12-fold).

Compared with `Cc1ccc(-c2cc(C(F)(F)F)c3c(N)ncnn23)cc1C(=O)Nc1cn(C(c2ccccc2)C(F)(F)F)cn1` (stereo not shown) [Example 1800, 5-(4-amino-5-(trifluoromethyl)pyrrolo[2,1-f][1,2,4]triazin-7-yl)-2-methyl-N-(1-(2,2,2-trifluoro-1-phenylethyl)-1H-imidazol-4-yl)benzamide], `COc1ncc(-c2cc(C(F)(F)F)c3c(N)ncnn23)cc1C(=O)N[C@@H]1CN(S(=O)(=O)c2cccc(F)c2)C[C@@H]1F` [Example 504, 5-[4-amino-5-(trifluoromethyl)pyrrolo[2,1-f][1,2,4]triazin-7-yl]-N-[(3R,4S)-4-fluoro-1-(3-fluorobenzenesulfonyl)pyrrolidin-3-yl]-2-methoxypyridine-3-carboxamide] is 15-fold higher in IC50: 0.003 µM for the first, 0.046 µM for the second.

Compared with `COc1ncc(-c2cc(C(F)(F)F)c3c(N)ncnn23)cc1C(=O)N1CCCC(C(C)(O)c2ccc(F)cc2)C1` (stereo not shown) [Example 1733, (5-(4-amino-5-(trifluoromethyl)pyrrolo[2,1-f][1,2,4]triazin-7-yl)-2-methoxypyridin-3-yl)(3-(1-(4-fluorophenyl)-1-hydroxyethyl)piperidin-1-yl)methanone], `COc1ncc(-c2cc(C(=O)N3CC4(COC4)C3)c3c(N)ncnn23)cc1C(=O)N1CCC[C@@H](Cc2ccc(F)cc2)C1` [Example 466, 7-{5-[(3S)-3-[(4-fluorophenyl)methyl]piperidine-l-carbonyl]-6-methoxypyridin-3-yl}-5-{2-oxa-6-azaspiro[3.3]heptane-6-carbonyl}pyrrolo[2,1-f][1,2,4]triazin-4-amine] is 2-fold lower in IC50: 0.234 µM for the first, 0.116 µM for the second. The second is the more potent here.

`COc1ncc(-c2cc(CN)c3c(N)ncnn23)cc1C(=O)NCC[C@H](O)c1ccc(Cl)cc1` [Example 63, (S)-5-(4-amino-5-(aminomethyl)pyrrolo[2,1-f][1,2,4]triazin-7-yl)-N-(3-(4-chlorophenyl)-3-hydroxypropyl)-2-methoxynicotinamide] showed an IC50 of 0.123 µM.
